SMILES strings stand for the structures. The campaign covered roughly 340,000 compounds. About 6,900 (2%) were called active. Rule as the data show it: active = inhibition above about 30%; inactive = below that, where a call was filed. The list shows a part of the results, in another mix than the full data. The source gives no active or inactive call for entries shown without one.

For this test, the target named is D(2) dopamine receptor (Homo sapiens) (UniProt P14416). As to the kind of experiment: HTS Assay for Allosteric Antagonists of the Human D2 Dopamine Receptor: Primary Screen for Antagonists. Also: 0% is about no effect. The conditions noted are these: HEK293 TREx D2 cells, calcium flux, dopamine EC80; at 10 µM; stronger effect = higher value. Summed up: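 Read-out: kinetic calcium fluorescence (1 cycle/s) in inducible HEK293 T-REx D2 cells after an EC80 dopamine addition that followed 180 s compound preincubation. Loss of the dopamine response indicates antagonism.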
Sequence of UniProt P14416 (P14416 whole entry, looked up): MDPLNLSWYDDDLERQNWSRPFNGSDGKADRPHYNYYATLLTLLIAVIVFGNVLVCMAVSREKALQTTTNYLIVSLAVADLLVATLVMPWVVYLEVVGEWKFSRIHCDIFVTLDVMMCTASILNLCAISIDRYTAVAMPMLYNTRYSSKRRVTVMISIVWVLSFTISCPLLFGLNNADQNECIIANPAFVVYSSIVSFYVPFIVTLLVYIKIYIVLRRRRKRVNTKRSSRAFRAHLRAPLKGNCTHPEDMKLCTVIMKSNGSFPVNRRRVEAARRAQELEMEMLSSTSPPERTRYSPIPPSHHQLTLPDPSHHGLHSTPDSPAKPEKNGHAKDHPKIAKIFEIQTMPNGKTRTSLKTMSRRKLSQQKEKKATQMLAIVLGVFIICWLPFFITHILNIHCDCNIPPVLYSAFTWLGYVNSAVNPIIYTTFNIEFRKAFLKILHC
In general terms: A change in cytosolic calcium serves as a functional read-out for many receptors and channels.
By inhibition is commonly meant the drop in the measured response relative to a control, in per cent. Consider `CCc1ccc(NS(=O)(=O)c2ccc3[nH]cc(C(=O)N4CCCCCC4)c(=O)c3c2)cc1`, for which the inhibition was -3.9%.
Turning to `CCN(c1ccccc1)S(=O)(=O)c1nnc(NC(=O)C(C)Oc2ccccc2)s1` (stereo not given), the inhibition was determined as 1.94%.
Then `COc1ccc(N(C(=O)c2ccc(C)cc2)S(=O)(=O)c2ccc(Cl)cc2)cc1`, with 7.16%; and `CCOC(=O)Cc1ccc(NC(=O)N2CCC(CN3CCC(C)CC3)CC2)cc1`, with 2.23%; and `O=C(Nc1ccc(S(=O)(=O)Nc2ncccn2)cc1)c1cccnc1`, with active: 42.3%.
On to `COc1cc(C2C(C(=O)Nc3ccc(C)cc3C)=C(C)Nc3nc(SCc4ccccc4)nn32)cc(OC)c1OC` (stereo not given), for which the inhibition amounted to 6.57%.
As to `O=c1cc2oc3cc(O)c(O)cc3c(-c3ccccc3[N+](=O)[O-])c-2cc1O`, the inhibition was active: 31.4%.
On to `CCOc1ccc(N(CC(=O)Nc2ccc3c(c2)OCO3)S(=O)(=O)c2ccccc2)cc1`, for which the inhibition was -0.946%.
For the compound `CC(C)Sc1ncc(Cl)c(C(=O)Nc2c(C(=O)Nc3ccccc3)oc3ccccc23)n1`, the inhibition is -5.36%.
Consider `O=C1c2oc3ccccc3c(=O)c2C(c2cccc(O)c2)N1Cc1ccc(F)cc1` (stereo not given), for which the inhibition was -3.38%.
Then `O=C(c1cc(-c2ccc(Cl)cc2)on1)N(Cc1ccc(F)cc1)Cc1ccco1`, with -9.03%.
The figure for `Cc1nn(C)c2c1c(-c1ccccc1)cc(=O)n2Cc1c(F)cccc1Cl` is -2.21%.
In the case of `Cc1ccccc1Nc1c(-c2ccccc2O)nc2sccn12`, the inhibition was -11.7%.
Consider `CCOc1cccc(CC(=O)N2CCc3c([nH]c4ccccc34)C2c2ccc(OC)cc2)c1OCC` (stereo not given), for which the inhibition was -0.545%.
For the compound `COc1ccc(Cn2c(C(=O)O)c(CNCCc3cccs3)c3ccc(OC)cc32)cc1`, the inhibition is -14.4%.
Turning to `Cc1oc2ncn(C)c(=O)c2c1C(=O)N1CCN(c2ccc(Cl)cc2)CC1`, the inhibition is -11.8%.
As for `COc1ccc(-c2c(C)nn3c(C(F)(F)F)cc(C)nc23)cc1OC`, the inhibition amounted to 11.4%.
With `COc1cccc(CNCCCSc2nnnn2C)c1`, the inhibition is -13.1%.
Take `Cc1ccccc1CN1C(=O)c2ccccc2S(=O)c2ccc(C(=O)NCc3ccccc3)cc21` (stereo not given): the inhibition was 16.2%.
As for `COc1ccc(CCNC(=O)CCc2c(C)nc3c(-c4ccc(F)cc4)c(C)nn3c2C)cc1OC`, the inhibition was 5.88%.
`Cc1ccc(-n2c(SCc3nc(-c4ccc(Cl)cc4)no3)nnc2-c2ccncc2)cc1`: the inhibition was -5.71%.
Turning to `COc1ccc(S(N)(=O)=O)cc1C(=O)NCCCN1CCN(c2ccc(C)cc2)CC1`, the inhibition was active: 48.6%.
Regarding `CCc1ccc(NC(=O)CN(c2ccc(C)cc2)S(=O)(=O)c2c(C)nn(C)c2C)cc1`, the inhibition is -5.08%.
Then `COc1ccc(C(=O)NCC(c2cccnc2)N2CCN(c3ccccc3F)CC2)cc1OC` (stereo not given), with 7.14%.
With `CCC(=O)N1CCc2cc(S(=O)(=O)CCC(=O)NCc3ccccc3Cl)ccc21`, the inhibition is -0.722%.
Then `CCCc1nn2c(=O)cc(COC(=O)c3ccccc3NC(=O)C3CCCCC3)nc2s1`, with -4.23%; and `Cc1ccc(NC(=O)C2CCN(S(=O)(=O)c3cccs3)CC2)cc1`, with 9.24%.
As to `COC(=O)c1c(C)sc(-c2c(-c3ccc(F)cc3)[nH]c3[nH]c(=O)[nH]c(=O)c23)c1O`, the inhibition amounted to 1.32%.
Then `COc1ccc(NC(=O)C2=C(C)Nc3c(C(=O)Nc4ccc(C)cc4)cnn3C2c2cccc(Cl)c2)cc1` (stereo not given), with -4.01%; and `CCCCN(CC)C(=O)c1c[nH]c2ccc(S(=O)(=O)Nc3cccc(OC)c3)cc2c1=O`, with -15.8%; and `CN(Cc1ccccc1)C(=C(Cl)Cl)C(=C1NCCN1)[N+](=O)[O-]`, with active: 33.6%.
In the case of `COc1ccc(NC(=O)CC2Nc3cccc4cccc(c34)NC2=O)cc1` (stereo not given), the inhibition worked out at 11.6%.
Then `Cn1nnnc1SCC(=O)N1CCCc2ccccc21`, with active: 40.6%; and `Cc1ccc2oc(-c3cccc(NC(=O)c4cccc5c(Br)cccc45)c3)nc2c1`, with 9.76%; and `COc1ccc(-c2cc(C)no2)cc1S(=O)(=O)N1CCN(c2ccc(C(C)=O)cc2)CC1`, with -3.52%.
On to `Cc1ccc2onc(CC(=O)N3CCN(c4ccccc4F)CC3)c2c1`, for which the inhibition is -11.3%.
`Cc1oc2ccc(O)c(CN3CCOCC3)c2c1C(=O)Nc1ccc(C(C)C)cc1`: the inhibition came out at 1.93%.
Regarding `CC(=O)N1c2ccccc2CC1C(=O)N1CCN(c2cccc(C)c2C)CC1` (stereo not given), the inhibition is -15.8%.
The figure for `Clc1ccccc1CSc1nncn2c1cc1occc12` is 9.79%; for `O=C(CCCn1c(=O)c2cccn2c2ccccc21)Nc1cccc(Cl)c1` it is 12.9%; for `Cc1ccc(N(CC(=O)NCCSc2nc3ccccc3s2)S(=O)(=O)c2ccccc2)c(C)c1` it is active: 55.1%.
Then `CCOc1ccccc1CNC(=O)CCCn1c(=O)c2cccn2c2cccnc21`, with -5.53%.
`Clc1ccc(N2CCN(Cc3nnc(-c4ccc5c(c4)OCO5)o3)CC2)cc1`: the inhibition amounted to 0.374%.
With `CN(Cc1ccccc1)CC(O)COc1ccc(CNCCOc2cccnc2)cc1` (stereo not given), the inhibition was active: 82.9%.
Then `COc1ccc(-c2cccc(NS(=O)(=O)c3cccs3)c2)nn1`, with -9.91%; and `CN(C)CCOC(=O)C(c1ccccc1)C1(O)CCCC1` (stereo not given), with active: 58.6%.
For `CCCOc1ccc(/C=C/C(=O)Nc2sc3c(c2C(=O)OCC)CCC(C)C3)cc1OC` (stereo not given), the inhibition was -13.5%.
Take `CC(=O)c1cc(-c2ccc(F)cc2)n(CC(=O)NC2CCCCCC2)c1C`: the inhibition was -21.5%.
As for `COc1ccc(NC(=O)c2ccco2)cc1NC(=O)C(C)Oc1ccc(Cl)cc1Cl` (stereo not given), the inhibition stood at 23.8%.
The figure for `CCOc1ccc(CCNC(=O)CN2C(=O)c3cccnc3Oc3ccc(C)cc32)cc1OCC` is 23.6%; for `COc1cccc(CNS(=O)(=O)c2c(C)nc3scc(C)n3c2=O)c1` it is 17.9%; for `O=C(Nc1cccc(C(F)(F)F)c1)c1cc2nc(-c3ccccc3)cc(C(F)(F)F)n2n1` it is -5.87%.
For the compound `CCCOc1ccc(-c2cccc(NS(=O)(=O)c3cccs3)c2)nn1`, the inhibition is -4.23%.
On to `COc1ccc(-c2onc(C)c2C)cc1S(=O)(=O)Nc1ccc(OC(F)(F)F)cc1`, for which the inhibition is -1.91%.
For the compound `CN(C(=O)COC(=O)c1cc(F)c(F)cc1Cl)c1ccccc1`, the inhibition was active: 31.6%.
Then `Cc1ccc(CSc2oc(-c3ccco3)nc2S(=O)(=O)c2ccc(Cl)cc2)cc1`, with -1.42%; and `CCOC(=O)c1cccc(NC(=O)c2cc(S(=O)(=O)N3CCCC3)cn2C)c1`, with 3.56%.
For the compound `CCOC(=O)CNC(=O)c1cc2c(=O)n(CC)c3ccccc3c2s1`, the inhibition was 4.12%.
In the case of `COC(=O)c1cc2sc(C)cc2n1Cc1ccccc1`, the inhibition was 10.2%.
The figure for `Cc1ccc(CNC(=O)CSc2ccc(-c3sc(-c4ccccc4)nc3C)nn2)cc1` is -22%.
For `CCn1cc(C(=O)O)c(=O)c2cc(F)c(N/N=C/c3ccccc3[N+](=O)[O-])cc21`, the inhibition is active: 30%.
Take `CCCOC(=O)c1ccc(NC(=O)Cn2nnc3sc4c(c3c2=O)CCC(C(C)(C)C)C4)cc1` (stereo not given): the inhibition worked out at 7.03%.
Then `COc1ccc(-c2cn3nc(N4CCC(C(=O)NCc5ccc(F)cc5)CC4)sc3n2)cc1`, with 4.99%; and `COc1cc(C(=O)N(Cc2cccnc2)Cc2cc3cc4c(cc3[nH]c2=O)OCCO4)cc(OC)c1OC`, with active: 36.8%; and `Cc1ccc(C2=NN(CC(=O)NC(C)c3ccccc3)C(=O)CC2)cc1` (stereo not given), with -0.897%.
For `CCOC(=O)c1c(NC(=O)COc2cccc(C)c2C)sc2c1CCCCC2`, the inhibition is 10.5%.
In the case of `COc1ccc(NC(=O)C2CCC(CNS(=O)(=O)c3csc(C(N)=O)c3)CC2)cc1` (stereo not given), the inhibition was -3.9%.
On to `CC(C)c1ccc(Nc2c(-c3ccc(N4CCOCC4)cc3)nc3ncccn23)cc1`, for which the inhibition was -13.2%.
As to `CC(=O)CC(C)(C)Nc1nc2ccc([N+](=O)[O-])cc2o1`, the inhibition is active: 38.6%.
Consider `COc1ccc(Nc2ncnc3onc(-c4ccc(Cl)cc4)c23)cc1Cl`, for which the inhibition was -27.9%.
As for `CCCCn1c(SCC(=O)Nc2cccc(OC)c2)nc2ccsc2c1=O`, the inhibition was -2.79%.
With `Cc1ccc(NC(=O)c2cn(-c3ccccc3)nc2-c2ccccc2)cc1`, the inhibition was -22.9%.
In the case of `O=C(NCc1ccccc1)c1ccc(NC(=O)N2CCSc3ncccc32)cc1`, the inhibition was 5.67%.
With `COc1ccc(-n2cc(-c3ccccc3)c3c(NCc4cccc(Cl)c4)ncnc32)cc1`, the inhibition came out at 23.8%.
Take `COc1cc(OC)c(NC(=O)c2cnn(-c3cccc(Cl)c3C)c2C2CCN(C(=O)OC(C)(C)C)CC2)cc1Cl`: the inhibition turned out to be 3.58%.
As to `COc1ccccc1NC(=O)c1c(C)cc(C)nc1SCC(=O)Nc1cccc(C)c1`, the inhibition was 23.2%.
Turning to `COCCNC(=O)CCn1c(=O)c2cc(OC)c(OC)cc2n(CC(=O)Nc2ccccc2OC)c1=O`, the inhibition was determined as 2.12%.
With `Cc1ccc(-n2nc(C)c3c(C)cc(=O)n(CC(=O)NC(C)C)c32)cc1`, the inhibition was found to be 11.2%.
Turning to `CCN(CC)CCOC(=O)c1ccc(NC(=O)CSc2cc(=O)n(CC)c3ccccc23)cc1`, the inhibition amounted to 14.4%.
For `CCc1cccc(CC)c1N(COC)C(=O)Cn1c(C)nc2ccccc21`, the inhibition is -3.33%.
`O=C(Nc1ccc(F)c(Cl)c1)C1Cc2ccccc2CN1S(=O)(=O)c1ccc(F)cc1` (stereo not given): the inhibition is 3.36%.
With `CCc1nn(CC(=O)Nc2ccc(C)cc2C)c(=O)c2cc3sccc3n12`, the inhibition is 11.7%.
Take `Cc1ccc(Cn2ccn(Cc3cccc(C(F)(F)F)c3)c(=O)c2=O)cc1`: the inhibition is -10.7%.
Take `COc1cccc(NC(=O)CSc2nc3c([nH]c4ccccc43)c(=O)n2-c2cccc(Cl)c2)c1`: the inhibition was -23%.
Regarding `CCOC(=O)c1ccc(NC(=O)CSc2nc(C)c(Cc3ccccc3)c(=O)[nH]2)cc1`, the inhibition is -1.91%.
Consider `Cc1ccc(-c2ccc(=O)n(CC(=O)Nc3ccc(C(C)C)cc3)n2)cc1`, for which the inhibition came out at 2.26%.
Take `C=CCOc1ccc(C2c3c(oc4ccc(C)cc4c3=O)C(=O)N2CCCN2CCOCC2)cc1` (stereo not given): the inhibition was -2.84%.
As to `COc1ccccc1N=c1scc(-c2ccc(S(=O)(=O)N3CCCC3)cc2)n1C`, the inhibition was -4.86%.
For `COc1ccccc1CNC(=O)CCNS(=O)(=O)c1cccc2nsnc12`, the inhibition was -6.79%.
As for `COc1cccc(NC(=O)N2CCN(C(=O)c3nsc4ccccc34)CC2)c1`, the inhibition is -10.2%.
As for `Cc1nc2c(c(C)nn2-c2ccccc2)c(C)c1CCC(=O)NCCc1ccc(Cl)cc1`, the inhibition was -3.86%.
As for `CCCc1cc(=O)[nH]c(SC(C)C(=O)N2c3ccccc3CC2C)n1` (stereo not given), the inhibition was active: 44%.
`COc1ccc(NC(=O)N2CCN3CCCCC3C2)cc1OC` (stereo not given): the inhibition was 3.83%.
Turning to `COc1cc(C2NC(=O)c3c(sc4c3CCN(C)C4)N2)ccc1OC(=O)c1ccccc1` (stereo not given), the inhibition was -1.29%.
With `Cc1c(NC(=O)c2ccc(Br)o2)cccc1-c1nc2ccccc2o1`, the inhibition came out at 7.07%.

The values above are taken from PubChem BioAssay AID485344 (National Center for Advancing Translational Sciences (NCATS), 2010).
